# The other results are listed elsewhere or left out.
# Experiments:
# HSkMC = human skeletal muscle cells; test: cytotoxicity call (relative viability < 0.9); conditions: 10 µM
# HepG2 = test: cytotoxicity call (relative viability < 0.9); conditions: 10 µM
# S. aureus RN4220 = test: growth inhibition call (relative growth <= 0.2); conditions: 50 µM
Compound,cytotoxicity call (HSkMC),cytotoxicity call (HepG2),growth inhibition call (S. aureus RN4220)
C[C@H]1CN([C@@H](C)CO)S(=O)(=O)c2ccc(C#CC3CCCC3)cc2O[C@H]1CN(C)C(=O)Cc1ccncc1,inactive,inactive,inactive
Cn1c(=O)n(C)c2cc(CN)ccc21,inactive,inactive,inactive
CC(C)NC(=O)Nc1cccc2c1O[C@H](CN(C)S(=O)(=O)c1ccc(Cl)cc1)[C@@H](C)CN([C@H](C)CO)C2=O,inactive,inactive,inactive
COc1ccccc1CN1C(=O)c2ccccc2[C@](Cc2ccccc2I)(C(=O)NC2CC2)[C@@H]1c1ccc(CO)cc1,inactive,active,inactive
C[C@H](CO)N1C[C@H](C)[C@@H](CN(C)S(=O)(=O)c2cccs2)Oc2ccc(NC(=O)C3CC3)cc2C1=O,inactive,inactive,inactive
O=C(C[C@@H]1C=C[C@H](NC(=O)Nc2ccc3c(c2)OCO3)[C@@H](CO)O1)NCCCN1CCOCC1,inactive,inactive,inactive
C[C@@H]1CCCCO[C@H](CN(C)C)[C@@H](C)CN([C@H](C)CO)C(=O)c2cc(NC(=O)Nc3ccc(C(F)(F)F)cc3)ccc2O1,inactive,inactive,inactive
C[C@@H]1CN([C@@H](C)CO)S(=O)(=O)c2ccc(-c3cncnc3)cc2O[C@H]1CN(C)C(=O)CN(C)C,inactive,inactive,inactive
COc1cccc(S(=O)(=O)N2C[C@H](O)COC[C@@H]3O[C@@H](CC(=O)N4CCOCC4)CC[C@H]32)c1,inactive,inactive,inactive
C[C@@H]1CN([C@@H](C)CO)C(=O)c2cc(N(C)C)ccc2O[C@@H](C)CCCCO[C@@H]1CN(C)CC1CCCCC1,inactive,inactive,inactive
COc1ccccc1C#Cc1cnc2c(c1)C(=O)N([C@@H](C)CO)C[C@H](C)[C@@H](CN(C)C(=O)CN(C)C)O2,inactive,inactive,inactive
CN(C)CC(=O)N1CC(=O)N2[C@@H](CO)[C@@H](c3ccc(C#Cc4cccnc4)cc3)[C@@H]2C1,inactive,inactive,inactive
COc1cc(NC(=O)c2cccc(-n3cc(NC(=O)Nc4cccc(C)c4)cn3)c2)cc(OC)c1OC,active,active,inactive
C[C@H]1CN([C@@H](C)CO)C(=O)c2cc(-c3ccncc3)cnc2O[C@@H]1CN(C)S(=O)(=O)c1ccccc1,inactive,inactive,inactive
C=CCCN(CC#C[C@H]1Oc2ccccc2S(=O)(=O)N2CCC[C@@H]12)S(=O)(=O)c1ccc(C)cc1,inactive,active,inactive
COC(=O)c1cc(=O)n2ccccc2c1C#N,inactive,inactive,inactive
Cc1ccnc(N)c1,inactive,inactive,inactive
CCCN(C)C[C@H]1OCCCC[C@H](C)Oc2ccc(NC(=O)C3CCCCC3)cc2C(=O)N([C@@H](C)CO)C[C@H]1C,inactive,inactive,inactive
O=c1c(O[C@@H]2O[C@H](CO)[C@@H](O)[C@H](O)[C@H]2O)c(-c2ccc(O)cc2)oc2cc(O)cc(O)c12,inactive,inactive,inactive
C[C@@H]1CN([C@@H](C)CO)C(=O)c2cc(-c3cccc(C(=O)N(C)C)c3)cnc2O[C@@H]1CN(C)S(=O)(=O)c1ccc(F)cc1,inactive,inactive,inactive
O=C(C[C@@H]1CC[C@@H]2[C@H](COC[C@@H](O)CN2S(=O)(=O)c2ccc(F)cc2)O1)NCc1ccc(Cl)c(Cl)c1,inactive,inactive,inactive
C[C@@H]1CN([C@@H](C)CO)C(=O)c2cc(NS(=O)(=O)c3ccccc3)ccc2O[C@@H](C)CCCCO[C@H]1CN(C)C(=O)Nc1ccc(C(F)(F)F)cc1,inactive,inactive,inactive
C[C@H](CO)N1C[C@H](C)[C@@H](CN(C)C(=O)Nc2ccc(F)cc2)OCCCC[C@H](C)Oc2ccc(NC(=O)Nc3ccc4c(c3)OCO4)cc2C1=O,inactive,inactive,inactive
COC(=O)[C@H](Cc1ccccc1)N1CC(/C=C/C2CC2)=C[C@@H]1[C@@H](O)CCn1cc(-c2ccc(C(=O)NO)s2)nn1,inactive,inactive,inactive
Cc1noc(C)c1NC(=O)Nc1ccc2c(c1)C(=O)N([C@@H](C)CO)C[C@@H](C)[C@H](CN(C)S(=O)(=O)c1ccc(F)cc1)OCCCC[C@H](C)O2,inactive,inactive,inactive
CC1(C)CC(=O)c2c(C(F)(F)F)nn(-c3ccc(C(N)=O)c(O[C@H]4CC[C@H](N)CC4)c3)c2C1,inactive,inactive,inactive

# Reference: the antibiotic and cytotoxicity screens of Wong et al. (2023)
